According to PubChem BioAssay AID488969 (Vanderbilt High Throughput Screening Facility, 2010):
Over roughly 110,000 compounds, “z-score” has its median near -0.1; the highest 2% begin near 2. Some of the results follow. The source made the active and inactive calls.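 The calls were made as follows: active = z-score in the third read window above 3 or below -3; inactive = the rest.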

The compounds below were run against Metabotropic glutamate receptor 8 (Rattus norvegicus) (UniProt P70579) (assay: mGluR8 Gi/Go-coupled signaling modulation – cell-based, rat, thallium flux, HTS, primary screen (AID 488969)). Conditions: HEK293 rat mGluR8, GIRK (G protein-gated inwardly rectifying potassium channel) thallium flux, FluoZin2; at 10 µM; stronger effect = higher value; submaximal glutamate (EC20) added with thallium.
UniProt P70579, sequence (P70579 whole entry, looked up): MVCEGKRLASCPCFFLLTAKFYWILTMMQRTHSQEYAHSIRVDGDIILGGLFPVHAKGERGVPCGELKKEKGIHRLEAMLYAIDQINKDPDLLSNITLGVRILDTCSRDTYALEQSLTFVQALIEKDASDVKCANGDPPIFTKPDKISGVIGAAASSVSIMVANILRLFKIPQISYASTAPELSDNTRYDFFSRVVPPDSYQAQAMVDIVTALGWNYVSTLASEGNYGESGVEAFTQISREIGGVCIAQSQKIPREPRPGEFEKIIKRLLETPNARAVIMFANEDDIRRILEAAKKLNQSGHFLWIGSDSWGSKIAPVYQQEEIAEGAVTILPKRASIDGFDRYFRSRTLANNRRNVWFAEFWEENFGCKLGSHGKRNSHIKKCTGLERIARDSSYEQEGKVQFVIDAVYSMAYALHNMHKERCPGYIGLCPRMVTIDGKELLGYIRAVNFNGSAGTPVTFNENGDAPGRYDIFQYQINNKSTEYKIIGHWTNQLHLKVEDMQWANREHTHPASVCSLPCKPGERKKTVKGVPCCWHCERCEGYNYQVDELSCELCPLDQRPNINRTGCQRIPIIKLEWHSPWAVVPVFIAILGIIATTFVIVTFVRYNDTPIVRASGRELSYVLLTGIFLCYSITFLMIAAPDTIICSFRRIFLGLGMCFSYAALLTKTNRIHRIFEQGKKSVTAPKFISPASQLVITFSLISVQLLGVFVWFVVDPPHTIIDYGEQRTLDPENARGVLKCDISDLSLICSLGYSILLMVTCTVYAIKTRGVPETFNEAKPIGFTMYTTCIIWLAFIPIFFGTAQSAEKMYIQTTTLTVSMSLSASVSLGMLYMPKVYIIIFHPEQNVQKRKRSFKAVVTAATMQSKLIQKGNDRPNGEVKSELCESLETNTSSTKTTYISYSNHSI

Row | SMILES | z-score
1 | Cc1cc(NCCCn2ccnc2)n2nc(-c3ccc(F)cc3)cc2n1 | -0.0109
2 | C=CCNC(=S)NNC(=O)c1csc(CC)c1 | -0.158
3 | O=[n+]1cc(-c2ccc(Br)cc2)n([O-])c2c1CCC2 | -0.244
4 | COCCN(C(=O)COc1ccc(Cl)cc1)c1nnc(-c2cccnc2)s1 | -0.163
5 | NS(=O)(=O)c1ccc(CCNC(=O)C2CCN(S(=O)(=O)c3cnc[nH]3)CC2)cc1 | -0.00955
6 | CC(=O)c1ccc(NC(=O)CCCN2C(=O)/C(=C/C(C)=C/c3ccccc3)SC2=S)cc1 | -1.43
7 | NS(=O)(=O)c1ccc(NC(=O)CSc2nnc(-c3cnccn3)n2-c2ccccc2)cc1 | -0.0471
8 | Cc1[nH]nc2c1C(c1ccccc1F)NC2=O (centres undefined) | 2.74
9 | Cc1ccc(NC2OC(CO)C(O)C(O)C2O)cc1 (centres undefined) | -0.358
10 | CC(=O)Nc1ccc(S(=O)(=O)Nc2nccc(C3Cc4ccccc4C(=O)O3)n2)cc1 (centres undefined) | -0.618
11 | CCOC(=O)/C(=N\Nc1ccccc1Cl)N1CCN(C)CC1 | -0.243
12 | COC(=O)CNC(=O)c1c(C)cc(=O)oc1C | -0.289
13 | O=C(Nc1ccc(Br)cc1)C1CC=CCC1C(=O)OCC1CCCO1 (centres undefined) | 0.616
14 | CCCCOc1ccc(CN(C)c2ncnc(N)n2)cc1 | -0.455
15 | Cc1ccc(C(=O)Nc2nc(=O)n(C(=O)c3ccccc3Cl)s2)cc1 | -2.59
16 | Fc1cc(F)c2nc(Nc3nc4cc5c(cc4s3)OCO5)sc2c1 | 1.9
17 | S=C(NCCCN1CCOCC1)Nc1ccc(Cl)cc1Cl | -0.284
18 | COc1cccc(-c2cc(C(F)(F)F)n3ncc(C(=O)O)c3n2)c1 | 0.569
19 | Cc1ccc(NC(=O)CSC2=C(C#N)C(c3ccc4c(c3)OCO4)C3=C(CCCC3=O)N2)c(C)c1 (centres undefined) | -0.933
20 | CC(C)CNC(=O)COC(=O)c1cncc(Br)c1 | -0.113
21 | Cc1ccc(SCCC(=O)N2CCOCC2)cc1 | -0.213
22 | CCc1cc2c3c(c1)C1(C(=O)N3C(C)(C)CC2C)C(C#N)=C(N)N2C(=C1C#N)Nc1ccccc12 (centres undefined) | 0.187

Row | SMILES | z-score
23 | Cc1c(C)n(Cc2ccccc2)c2ncnc(N)c12 | -0.183
24 | CCn1c2ccccc2c2cc(/C(C)=N/O)ccc21 | -0.188
25 | Cc1cccc(NC(=S)NCC23C=CC(O2)C2C(=O)N(c4ccc(Cl)cc4)C(=O)C23)c1 (centres undefined) | -0.343
26 | CCCCCC(=O)Nc1ccc(S(=O)(=O)Nc2nccnc2OC)cc1 | 0.0573
27 | CC(C)NC(=O)COc1ncnc2sccc12 | 0.0373
28 | COC(=O)C1=C(C)C(c2ccc(OC)cc2)NC(=S)N1 (centres undefined) | 0.41
29 | COc1ccccc1C(=O)N(CN1CCCC1=O)c1cccc(Cl)c1 | 0.118
30 | O=C(Oc1c(Cl)cc(Cl)c2cccnc12)c1cccc([N+](=O)[O-])c1 | active: 9.18
31 | Cc1ccc(C(=O)NC(=S)Nc2ccc(S(=O)(=O)N3CCN(C)CC3)cc2)cc1 | 1.43
32 | Cc1cccc(OCc2nc(-c3ccc(-n4cccc4)cc3)no2)c1 | -0.304
33 | CCCOc1ccc(C(C(=O)OCCN(CC)CC)c2ccccc2)cc1 (centres undefined) | 2.43
34 | Fc1ccc2c(c1)C(c1ccncc1)=NNC(c1cccnc1)=N2 | -0.00568
35 | Cc1cnc(NC(=O)CN2CCN(c3ccccc3F)CC2)s1 | 0.0085
36 | COc1ccc(NC(=O)CSc2nnc(CCC(=O)Nc3ccc(C)c(Cl)c3)n2C)cc1 | -0.167
37 | COCCNC(=O)c1cc(-c2cccnc2)nc2ccc(Br)cc12 | -0.266
38 | Cc1c(C(=O)Nc2ccccc2C(=O)N2CCOCC2)cccc1[N+](=O)[O-] | -0.235
39 | Cc1ccc(OCC(=O)NNC(=O)CCc2ccccc2)cc1 | -0.0742
40 | COc1ccc(C(C(=O)NC2CCCCC2)N(C(=O)c2sc(C)nc2C)c2ccccc2C)cc1 (centres undefined) | -0.217
41 | CCOC(=O)CSc1nnc(CNC(=O)c2cccs2)n1CCc1ccccc1 | -1
42 | Cc1cc(C)n(-c2cc(N3CCN(C(=O)c4ccccc4C)CC3)ccc2[N+](=O)[O-])n1 | -1.2
43 | Cc1noc(C)c1CSc1nnc2scc(-c3ccc(Cl)cc3)n12 | -0.707
44 | CN1CCN(c2ccccc2NC(=O)Cc2ccc(Cl)cc2)CC1 | 0.652

Row | SMILES | z-score
45 | N#CC1(Cc2ccccc2Cl)c2ccccc2C=CN1C(=O)c1ccccc1 (centres undefined) | 0.0771
46 | O=C(c1ccccc1)c1c[nH]c2cc3c(cc2c1=O)OCCO3 | 0.171
47 | Cc1cc(NC2CCCCC2)nc(-c2ccccc2O)n1 | -0.184
48 | CC1CCC2(CC1)C(Nc1cccc(Cl)c1)=NC(=S)N2CC#N (centres undefined) | 2.23
49 | COc1ccc2nc(NC(=O)CSc3ccccc3)sc2c1 | 0.0453
50 | O=C(CN1C(=O)S/C(=C/c2cc(Br)cs2)C1=O)N1CCOCC1 | 0.159
51 | COc1ccc(NC(=O)NC2CC3CCCC(C2)N3Cc2ccccc2)cc1 (centres undefined) | -0.409
52 | COc1ccc2cc(Br)ccc2c1CC(=O)NC1CC(C)(C)NC(C)(C)C1 | active: 3.91
53 | CC1=Nc2ccccc2/C1=C\c1nc(-c2ccc(F)cc2)oc1O | 0.833
54 | CC(C)c1ccc(NC(=O)CN(Cc2ccccc2)S(C)(=O)=O)cc1 | 1.06
55 | O=C(Nc1nc(-c2ccccn2)cs1)c1ncc(Cl)c(Cl)c1Cl | 0.59
56 | Cc1sc(-n2c(C)cc(/C=N/n3cnnc3)c2C)c(C#N)c1C | -0.141
57 | COC(=O)C1=C(C)NC2=C(C(=O)CCC2)C1c1cccs1 (centres undefined) | -0.223
58 | CC(=O)Nc1ccc(SCC(=O)c2cc(C)n(-c3ccccc3F)c2C)cc1 | active: 4.45
59 | CCOC(=O)C1CN(C(C)(C)C)C(=O)C1=O (centres undefined) | -0.258
60 | O=c1ccc(Cc2ccccn2)n[nH]1 | -0.0114
61 | COc1ccccc1CN1C(=O)[C@@H]2C(CC(N)=O)NC3(C(=O)Nc4c3ccc(Cl)c4C)[C@@H]2C1=O (some centres undefined) | -0.0132
62 | CCn1c(SCC(=O)Nc2sc(C)c(C)c2C#N)nnc1C(C)C | -1.09
63 | CCCCCn1c(SC(C)C(C)=O)nc2c1c(=O)[nH]c(=O)n2C (centres undefined) | -0.525
64 | N#Cc1nc(COc2ccccc2)oc1NCCN1CCOCC1 | -0.209
65 | CCC(=O)Nc1ccc(C(=O)CSc2nnc(-c3ccccc3F)n2C2CC2)cc1 | -0.261
66 | Nc1ccc2nc3n(c(=O)c2c1)CCC3 | -0.342

Row | SMILES | z-score
67 | COc1ccccc1NCc1ccc([N+](=O)[O-])s1 | -0.113
68 | O=C1C2CCCN2c2ccc(S(=O)(=O)N3CCOCC3)cc2N1Cc1cccc(C(F)(F)F)c1 (centres undefined) | -0.398
69 | O=C(CSCCSCC(=O)c1ccco1)c1ccco1 | 0.321
70 | CSc1c(SCc2ccccc2)cnn(-c2ccccc2)c1=O | -1.29
71 | Cn1nnc2cc(NC(=O)N3CC4(C)CC3CC(C)(C)C4)ccc21 (centres undefined) | 0.255
72 | COc1ccccc1N1CCN(C(=O)CSc2nc3ccccc3[nH]2)CC1 | 0.112
73 | Cc1ccc(S(=O)(=O)NNC(=O)c2sccc2-n2cccc2)cc1 | -0.0772
74 | COc1ccc(C2=NN(CCC(=O)NCc3ccc4c(c3)OCO4)C(=O)CC2)cc1 | -0.312
75 | CCOC(=O)c1c(C)oc(NC(=O)COc2ccc(Cl)cc2C)c1C#N | -0.342
76 | O=C(NC1=NCCS1)c1cccc(NC(=O)c2ccco2)c1 | 0.0493
77 | COc1ccc(O)c(/C=N\NC(=O)CCn2nnc3ccccc32)c1 | -0.125
78 | COc1ccc(-c2cc(C(=O)N3CCN(C(c4ccccc4)c4ccccc4)CC3)no2)cc1 | -0.193
79 | CCCCOc1cccc(C(=O)NC(=S)Nc2cccc(NC(=O)c3ccccc3Cl)c2)c1 | -0.0458
80 | COc1ccc(N(Cc2cc3cccc(C)c3[nH]c2=O)S(C)(=O)=O)cc1 | 1.91
81 | CCc1nnc2n1N=C(c1ccc(-c3ccc(Cl)cc3Cl)o1)CS2 | 0.592
82 | O=C(CN1CCCCC1)N1c2ccccc2CCc2ccccc21 | -0.0448
83 | O=C(CSc1nnc(-c2ccccc2)n1-c1ccc(Cl)cc1)N/N=C/c1ccco1 | -0.556
84 | CCCCCCC12CCC(C(=O)O)(CC1)CC2 | 1.87
85 | COCCNC(=S)Nc1ccc2nc(N3CCCC3)cc(C)c2c1 | -0.039
86 | COCCCn1c(SCC(=O)OC2CCCCC2)nnc1-c1ccco1 | 0.0242
87 | O=C(C1CCC(C(=O)N2CCCC2)CC1)N1CCCC1 (centres undefined) | -1.33
88 | COc1cc2[nH]c(=O)n(Cc3ccc(C(=O)NCCCN4CCC(C)CC4)cc3)c(=O)c2cc1OC | -0.618

Row | SMILES | z-score
89 | COc1ccccc1Nc1ncnc2c1oc1ccccc12 | -1.15
90 | COC(=O)[C@H](Cc1ccccc1)NC(=O)NCc1cccs1 | -0.162
91 | CCOCCn1c(SCc2ccc(C)cc2)nc2c1c(=O)[nH]c(=O)n2C | -0.31
92 | CC1CC(Nc2ccccc2)c2ccccc2N1C(=O)c1cccnc1 (centres undefined) | -0.223
93 | Cc1ccc(NC(=O)c2ccc(CSc3nnnn3C)cc2)cc1 | -0.174
94 | COC(=O)c1ccc(CSc2nc3c(cnn3-c3ccc(C)c(C)c3)c(=O)[nH]2)o1 | -0.0305
95 | Cc1cccc(NC(=O)CSc2cc(C(=O)c3nccn3C)c3ccccc3n2)c1 | 0.179
96 | Cc1ccsc1/C=N/NC(=O)c1ccccn1 | -0.122
97 | CSCCC(NS(=O)(=O)c1ccc(Cl)cc1)C(=O)OCC(=O)NC1CC1 (centres undefined) | -0.00636
98 | CCN(CC#CCC1(O)c2ccccc2-c2ccccc21)C(C)C | -0.295
99 | COc1ccccc1NS(=O)(=O)c1cccc(N2CC(O)=C(c3ccccc3)C2=N)c1 | -0.244
100 | CCOC(=O)Nc1ccc2c(c1)nc(CN1CCOCC1)n2C | 0.195
101 | COc1ccc(Nc2nc(-c3cccc([N+](=O)[O-])c3)nc3ccccc23)cc1 | active: -3.34
102 | CC(C)CN(C(=O)COC(=O)c1ccc2c(c1)NC(=O)CS2)C1CCS(=O)(=O)C1 (centres undefined) | 0.393
103 | COC(=O)C(=NNc1c(C)n(C)n(-c2ccccc2)c1=O)C(=O)OC | -0.184
104 | CCCC1(C)Nc2ccccc2-c2nc3ccccc3n21 (centres undefined) | -0.758
105 | COc1cccc(N(CC(=O)N2CCc3ccccc3C2)S(C)(=O)=O)c1 | -0.256
106 | O=C(NCCCN1CCN(c2cccc(Cl)c2)CC1)c1nc(-c2ccncc2)no1 | -0.287
107 | CC(=O)c1cc(-c2ccccc2)n(CCC(=O)NC2CCC(C)CC2)c1C (centres undefined) | 0.0693
108 | N#C/C(=C\c1ccc(Cl)cc1)c1n[nH]c(Cn2cncn2)n1 | -1.21
109 | O=c1c2c(n3cnnc3n1-c1ccccc1)-c1ccccc1CC21CCCCC1 | -0.501
